# Reference: paper PMC4336329 (PLoS ONE, 2015)
# Hit rate of the full screen: of about 310,000 compounds, about 14,000 (4.5%) showed an effect of 50% or more. The effect is printed as a negative number. The list shows a part of the results.
# Molecular target: human ether-à-go-go-related gene (hERG) potassium channel (human, UniProt Q12809)
# Test: primary screen, population patch clamp on CHO cells stably expressing hERG
# 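Also: peak tail current of the secondary pulse compared with the same well before compound.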
# Sequence of human ether-à-go-go-related gene (hERG) potassium channel (Q12809 whole entry, looked up): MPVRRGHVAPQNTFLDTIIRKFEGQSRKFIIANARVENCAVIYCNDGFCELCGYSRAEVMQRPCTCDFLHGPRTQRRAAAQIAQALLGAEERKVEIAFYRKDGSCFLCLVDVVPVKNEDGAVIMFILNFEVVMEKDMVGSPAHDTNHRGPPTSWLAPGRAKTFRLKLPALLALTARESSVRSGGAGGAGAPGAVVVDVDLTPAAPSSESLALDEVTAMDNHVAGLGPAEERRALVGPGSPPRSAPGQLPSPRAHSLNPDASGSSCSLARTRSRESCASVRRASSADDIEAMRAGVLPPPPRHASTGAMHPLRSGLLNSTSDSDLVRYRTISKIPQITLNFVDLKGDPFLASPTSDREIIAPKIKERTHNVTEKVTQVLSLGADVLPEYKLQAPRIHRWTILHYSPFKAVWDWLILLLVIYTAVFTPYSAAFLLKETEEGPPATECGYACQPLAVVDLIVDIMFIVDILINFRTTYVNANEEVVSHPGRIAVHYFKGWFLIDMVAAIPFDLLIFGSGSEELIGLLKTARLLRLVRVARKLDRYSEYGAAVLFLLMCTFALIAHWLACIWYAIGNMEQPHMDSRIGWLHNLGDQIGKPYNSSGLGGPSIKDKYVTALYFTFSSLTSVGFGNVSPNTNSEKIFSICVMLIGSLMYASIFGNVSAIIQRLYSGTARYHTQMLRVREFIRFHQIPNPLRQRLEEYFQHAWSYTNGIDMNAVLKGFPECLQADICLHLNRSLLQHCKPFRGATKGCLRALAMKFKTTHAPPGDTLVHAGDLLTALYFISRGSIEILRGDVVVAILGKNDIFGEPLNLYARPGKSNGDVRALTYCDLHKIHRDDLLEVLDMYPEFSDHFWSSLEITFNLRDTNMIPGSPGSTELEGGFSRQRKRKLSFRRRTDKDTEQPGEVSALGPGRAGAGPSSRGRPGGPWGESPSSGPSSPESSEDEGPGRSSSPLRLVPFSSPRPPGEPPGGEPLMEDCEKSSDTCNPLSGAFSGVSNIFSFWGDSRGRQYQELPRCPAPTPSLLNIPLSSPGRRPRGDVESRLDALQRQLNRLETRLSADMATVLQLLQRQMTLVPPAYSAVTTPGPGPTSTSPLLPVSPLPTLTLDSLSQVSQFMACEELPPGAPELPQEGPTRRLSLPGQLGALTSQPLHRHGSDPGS
row,Compound,"hERG current change (%, negative = inhibition) at 10uM [%]"
1,CCCn1c(CNS(=O)(=O)c2ccc(C)cc2)nc2ccccc21,-31.3
2,CNC(=O)c1nn(-c2ccccc2)ccc1=O,-1.51
3,O=C1CCC[C@H]2c3[nH]c4ccccc4c3CCN12,0.816
4,COC(=O)c1ccc([C@H]2CC(=O)O2)cc1,1.35
5,COC(=O)c1cc(S(=O)(=O)NCc2ccc(F)cc2)cn1C,-5.38
6,CN(C)CCNC(=O)Nc1ccc(F)cc1F,38.7
7,Cc1nc(C(=O)NC2CC2)sc1C1(C)CC(c2ccccc2)=NO1 (centres unmarked),-8.63
8,COc1ccc(N(C(C)=O)C2C=CS(=O)(=O)C2)c(OC)c1 (centres unmarked),9.14
9,COCC1CCCN(Cc2nc(-c3ccc4c(c3)OCO4)no2)C1 (centres unmarked),-5.71
10,CCOC(=O)C1CCN(S(=O)(=O)c2ccc3[nH]c4c(c3c2)CCCC4)CC1,9.82
11,COc1ccc(NC(=O)COC(=O)C2CC(=O)N(Cc3ccc(C)cc3)C2)cc1 (centres unmarked),-12.7
12,COc1cc(NS(=O)(=O)c2cn(C)cn2)cc(OC)c1,15.6
13,COc1ccc(NC(=O)CCc2nnc3ccc(NCc4ccco4)nn23)cc1OC,9.85
14,CCCOc1ccc(/C(O)=C2/C(=O)C(=O)N(c3cc(C)on3)C2c2ccc(C(=O)OC)cc2)cc1 (centres unmarked),15.1
15,O=C(O)/C=C/C(=O)N1CCN(Cc2ccc3c(c2)OCO3)CC1,4.54
16,S=C(NN=C1C2CC3CC(C2)CC1C3)Nc1ccccc1,11.1
17,CC(C)Cc1nnc(NC(=O)CN2C(=O)NC3(CCCCC3)C2=O)s1,-3.83
18,O=C(O)c1ccc(N/N=C/c2ccc(F)c(F)c2)cc1.O=S(=O)(O)O,12.5
19,COC(=O)c1cccc(S(=O)(=O)N2CCN(c3nc4ccccc4s3)CC2)c1,11.5
20,C/C(=N\NC(=O)c1cc(C(C)(C)C)[nH]n1)C12CC3CC(CC(C3)C1)C2,-14.5
21,Cc1sc2nc(C)n(/N=C/N(C)C)c(=O)c2c1C,1.6
22,C/C(=N\OCC(=O)Nc1c(C)cc(C)cc1C)c1ccc2c(c1)OCCO2,6.27
23,COc1cccc(N2CCN(C(=O)C3CCC(=O)N(C4CCCCCC4)C3)CC2)c1 (centres unmarked),-32.8

row,Compound,"hERG current change (%, negative = inhibition) at 10uM [%]"
1,N#Cc1cc2c([nH]c1=S)CCCC2,11.8
2,CSCC[C@H](NC(=O)OC(C)(C)C)C(=O)N/N=C/c1ccc2nccnc2c1,-4.92
3,C=CCNC(=S)/C(=C(\[O-])c1ccc(Cl)cc1)[n+]1ccccc1,-7.93
4,CCOC(=O)Cn1c(=O)oc2cc(S(=O)(=O)N(C)Cc3ccccc3)ccc21,5.24
5,CCCNC(=O)NCCC12CC3CC(CC(C3)C1)C2,6.43
6,COCCNC(=O)c1cc2cc(Br)cc(OC)c2oc1=O,-5.69
7,O=C(Cc1cccs1)N1CCN(S(=O)(=O)c2ccc(Cl)c(C(F)(F)F)c2)CC1,-13.5
8,O=C1C(Cc2c[nH]c3ccccc23)NC(=S)N1Cc1ccccc1 (centres unmarked),-9.4
9,Nc1c(-c2ccccc2)cnn1-c1cccc([N+](=O)[O-])c1,3.29
10,CCN(CC(=O)Nc1ccc(NC(C)=O)cc1)C(=O)c1cc2c(s1)CCCC2,0.233
11,CC1(C)CC(=O)C=C(Nc2ccc(Cl)c(Br)c2)C1,-18.8
12,COc1ccc(C2CC(c3ccc(C)cc3)=NN2C(=O)CCC(=O)O)cc1OC (centres unmarked),1.69
13,O=C(NCCCNC(=O)c1ccccn1)c1ccc(Br)cc1,7.28
14,CCC1Oc2ccc(C)cc2N(CC(=O)NC2CCCCC2)C1=O (centres unmarked),5.8
15,CCOc1ccc(C(=O)Nc2cc3c(cc2N2CCCC2)n(CC)c(=O)n3CC)cc1OCC,5.16
16,O=S(=O)(NCCCN1CCOCC1)c1ccc(Cl)cc1,19.3
17,COc1ccc(/C=C2/Sc3ccc(C(=O)NCCCN4CCOCC4)cc3NC2=O)cc1OC,6.64
18,O=C(OCc1nnc(-c2cccs2)o1)C1=NN(c2ccccc2)C(=O)CC1,1.68
19,O=C1C(Nc2ccccc2)=C2CCCC=C2N1c1ccccc1,17.5
20,CN(c1ccccc1)S(=O)(=O)c1ccc(NC(=O)c2ccc(-c3ccccc3)cc2)cc1,1.75
21,CCOC(=O)C1CCN(S(=O)(=O)c2c(C)noc2C)CC1,-37.9
22,CCn1c2ccccc2c2cc(NC(=O)C(=O)N3CCOCC3)ccc21,10.1
23,COc1ccc(NCc2nnc(SCC(=O)NCc3ccccc3)n2-c2ccccc2OC)cc1,-14.2

row,Compound,"hERG current change (%, negative = inhibition) at 10uM [%]"
1,CC1=NN(S(=O)(=O)c2ccc(F)cc2)C(=O)c2ccccc2O1,1.11
2,O=C(O)CSC(C(=O)Nc1ccc(Br)cc1)c1ccccc1 (centres unmarked),6.45
3,Cc1cc2oc(C(=O)Nc3ccc(S(=O)(=O)N4CCCC(C)C4)cc3)cc(=O)c2cc1Cl (centres unmarked),1.67
4,CS(=O)(=O)N(CC(=O)Nc1ccc(S(=O)(=O)N2CCOCC2)cc1)c1ccccc1Br,13.4
5,Cc1cccc(N2CCN(C(=O)CCCCCn3c(=S)[nH]c4ccc(N5CCOCC5)cc4c3=O)CC2)c1C,28.7
6,COc1ccc(OC)c(CN(CCN2CCOCC2)S(=O)(=O)c2ccc(NC(C)=O)cc2)c1,-4.48
7,O=C(CSc1nccc(-c2cccs2)n1)Nc1ccc(Cl)cc1,9.4
8,COc1ccc(C(NC(=O)/C=C/c2ccco2)c2ccc(OC)c(OC)c2)cc1OC,4.98
9,Cn1c(C(=O)Nc2ccc3c(c2)OCCO3)cc2sccc21,-8.38
10,O=C(N1CCOCC1)N1CCN(c2ccccn2)CC1,4.74
11,Cc1cc(C(=O)N2CCC(Cc3ccccc3)CC2)c(C)o1,-29.7
12,O=C(Nc1cccc(Cl)c1)c1cncn1-c1ccc(F)cc1,-68.1
13,O=C(Nc1ccc(F)cc1)C1CCCN1S(=O)(=O)c1ccc(Br)cc1 (centres unmarked),8.27
14,Cc1ccc(S(=O)(=O)N2CCN(c3ncccn3)CC2)cc1C,13.9
15,Cc1ccc(O)c(C(CC(=O)NCc2cccnc2)c2ccccc2)c1 (centres unmarked),-7.21
16,CC(=O)c1ccc2cccc3c2c1N=CN3C,-2.94
17,O=[N+]([O-])c1ccc(N/N=C/c2cn(-c3ccccc3)nc2-c2ccccc2)cc1,21.9
18,CN(C)S(=O)(=O)c1cccc(C(=O)Nc2ccccc2Cl)c1,0.87
19,COc1cccc(CNc2ccc(S(N)(=O)=O)cc2)c1OCc1ccccc1F,-3.75
20,Cn1c(SCC(=O)NCc2ccc(F)cc2)ncc(C(=O)Nc2ccccc2)c1=O,-10.1
21,CS(=O)(=O)O.Nc1ncnc2c1ncn2C1CCCC1,-16
22,O=C(NC1CCN(C(=S)NCCc2ccccc2)CC1)C1CCCCC1,3.67
23,Cc1ccc(-c2n[nH]c3c2CCC3)cc1,-0.775

row,Compound,"hERG current change (%, negative = inhibition) at 10uM [%]"
1,Nc1ccc2c(c1)sc1ccccc12,7.37
2,CCOC(=O)CC/C(C)=N\N=C1\SC(CC(=O)O)C(=O)N1c1ccccc1 (centres unmarked),4.21
3,C/C(=N\N=C\c1ccccc1)c1nnn(-c2nonc2N)c1C,7.82
4,CCCC(=O)NCC(c1cccs1)S(=O)(=O)c1ccc(C)cc1 (centres unmarked),9.55
5,Cc1cc(Br)ccc1NC(=O)CN(C)C(=O)c1ccc2ccccc2n1,-32.9
6,Cc1ccc(-c2cn3cc([N+](=O)[O-])ccc3n2)cc1,-10.1
7,CC(=O)c1cccc(NC(=O)C(OC(=O)/C=C/c2ccc3c(c2)OCO3)c2ccccc2)c1 (centres unmarked),-4.68
8,O=c1ccc2cc(S(=O)(=O)NCc3ccccc3)ccc2[nH]1,4.76
9,Cc1c(Cl)cccc1NC(=O)[C@@]1(CC(=O)O)CC(/C=C/c2ccccc2)=NO1,10.5
10,COc1cc(/C=C/C(=O)O)cc(S(=O)(=O)Nc2cccc(SC)c2)c1OC,23.1
11,CCCCNS(=O)(=O)c1ccc(S(=O)(=O)NCc2ccncc2)cc1,-9.06
12,COc1ccc(S(=O)(=O)N2CCC(C(=O)N3CCCCCC3)CC2)cc1,-3.04
13,c1cc2nnnn2nc1N1CCCCC1,1.35
14,CC1CCCC(C)N1C(=O)COC(=O)c1ccc[nH]c1=O (centres unmarked),3.02
15,S=c1[nH]nc(C2CCCCC2)n1Cc1ccccc1,-23.1
16,O=C(CNC(=O)c1ccccc1)NCC(=O)OCC(=O)c1ccc([N+](=O)[O-])cc1,8.63
17,CC1(C)CN(c2ccc(C(=O)c3ccccc3)cc2)C1=O,-0.622
18,Cc1ccccc1-n1c(-c2ccco2)n[nH]c1=S,22.2
19,Cc1noc(C)c1COc1cccc(C(=O)OCCOc2ccc(F)cc2)c1,1.22
20,O=C(Nc1ccccc1F)C(c1ccccc1)c1ccccc1,7.77
